From PubChem BioAssay (NCI)
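The compound was tested at five concentrations on cells cultured in 96-well plates, with a 48-hour exposure period. GI50 is the concentration that inhibits growth by half.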 The source holds more than one record for some entries. Only these are listed. An entry can have further records. A record mostly stands for its own series of concentrations, not given here; a value can be the end of its range.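 The concentration for full growth arrest is given as TGI.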

Key:
Experiment in all cases: DTP human tumour cell line panel, 48 h
T-47D breast = tested on: T-47D breast
NCI-H226 lung = tested on: NCI-H226 lung
HT29 colon = tested on: HT29 colon
MDA-MB-231 breast = tested on: MDA-MB-231 breast
OVCAR-4 ovarian = tested on: OVCAR-4 ovarian
LOX IMVI melanoma = tested on: LOX IMVI melanoma
K-562 leukemia = tested on: K-562 leukemia
UACC-62 melanoma = tested on: UACC-62 melanoma
MCF7 breast = tested on: MCF7 breast
SK-MEL-5 melanoma = tested on: SK-MEL-5 melanoma
MDA-MB-435 = tested on: MDA-MB-435
IGROV1 ovarian = tested on: IGROV1 ovarian
HCC-2998 colon = tested on: HCC-2998 colon
HCT-116 colon = tested on: HCT-116 colon
HS 578T breast = tested on: HS 578T breast
SF-539 CNS = tested on: SF-539 CNS
SF-295 CNS = tested on: SF-295 CNS
SNB-19 CNS = tested on: SNB-19 CNS
HL-60(TB) leukemia = tested on: HL-60(TB) leukemia
BT-549 breast = tested on: BT-549 breast
NCI/ADR-RES ovarian = tested on: NCI/ADR-RES ovarian
UO-31 renal = tested on: UO-31 renal
HCT-15 colon = tested on: HCT-15 colon
EKVX NSCLC = tested on: EKVX NSCLC
SW-620 colon = tested on: SW-620 colon
OVCAR-5 ovarian = tested on: OVCAR-5 ovarian
OVCAR-3 ovarian = tested on: OVCAR-3 ovarian

NC1CCC(Nc2nc(NCc3ccc(-c4ccco4)nc3)c3ncn(C4CCCC4)c3n2)CC1 (centres undefined)
TGI (T-47D breast): 80.7 nM and 1.28 µM
TGI (NCI-H226 lung): 685 nM and 11.8 µM
TGI (HT29 colon): 53.5 nM and 11.1 µM
TGI (MDA-MB-231 breast): 578 nM and 10.8 µM
TGI (OVCAR-4 ovarian): 441 nM and 10.3 µM
GI50 (LOX IMVI melanoma): 27.5 nM and 7.93 µM

C=C1C(=O)[C@@]23CC[C@H]4[C@@](C)(CCC[C@@]4(C)C(=O)OC)[C@@H]2CC[C@]1(O)C3
TGI (K-562 leukemia): 2.05 µM and > 100 µM

COC(=O)[C@@H](C)C[C@H](Cc1ccc(F)cc1)NC(=O)c1csc([C@@H](C[C@H](C(C)C)N(C)C(=O)[C@@H](NC(=O)[C@H]2CCCCN2C)C(C)C)OC(C)=O)n1
GI50 (UACC-62 melanoma): 0.648 nM and 7.92 nM
GI50 (MCF7 breast): 0.3 nM and 5.61 nM
GI50 (SK-MEL-5 melanoma): 0.404 nM and 6.51 nM
TGI (SK-MEL-5 melanoma): 15.1 nM and 200 nM
GI50 (MDA-MB-435): 0.102 nM and 1.67 nM
GI50 (IGROV1 ovarian): 1.26 nM and 15.2 nM
GI50 (HCC-2998 colon): 5.19 nM and 62.3 nM
GI50 (HCT-116 colon): 0.469 nM and 5.94 nM
TGI (HS 578T breast): 509 nM and > 16.7 µM
TGI (SF-539 CNS): 6.94 nM and 96 nM
GI50 (SF-295 CNS): 1.09 nM and 16.2 nM
GI50 (NCI-H226 lung): 3.5 nM and 119 nM
TGI (NCI-H226 lung): 91.2 nM and > 16.7 µM
GI50 (SNB-19 CNS): 0.585 nM and 9.16 nM
GI50 (HL-60(TB) leukemia): 0.367 nM and 3.77 nM
GI50 (K-562 leukemia): 0.444 nM and 4.96 nM
GI50 (BT-549 breast): 0.76 nM and 12.1 nM
GI50 (HT29 colon): 0.406 nM and 5.46 nM
GI50 (NCI/ADR-RES ovarian): 23.6 nM and 313 nM
GI50 (UO-31 renal): 7.02 nM and 186 nM
TGI (MDA-MB-231 breast): 48 nM and 4.36 µM
GI50 (HCT-15 colon): 3.21 nM and 33.7 nM
GI50 (EKVX NSCLC): 4.49 nM and 46.9 nM
GI50 (SW-620 colon): 0.533 nM and 7.08 nM
GI50 (OVCAR-4 ovarian): 13.7 nM and 184 nM
GI50 (OVCAR-5 ovarian): 4.45 nM and 69.3 nM
GI50 (OVCAR-3 ovarian): 0.31 nM and 4.2 nM
